# Out of some 310,000 compounds screened, about 14,000 (4.5%) showed an effect of 50% or more. The effect is printed as a negative number. The list shows a part of the results.
# Molecular target: human ether-à-go-go-related gene (hERG) potassium channel (human, UniProt Q12809)
# Test: primary screen, population patch clamp on CHO cells stably expressing hERG
# 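Note: peak tail current of the secondary pulse compared with the same well before compound.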
# human ether-à-go-go-related gene (hERG) potassium channel, sequence (Q12809 whole entry, looked up): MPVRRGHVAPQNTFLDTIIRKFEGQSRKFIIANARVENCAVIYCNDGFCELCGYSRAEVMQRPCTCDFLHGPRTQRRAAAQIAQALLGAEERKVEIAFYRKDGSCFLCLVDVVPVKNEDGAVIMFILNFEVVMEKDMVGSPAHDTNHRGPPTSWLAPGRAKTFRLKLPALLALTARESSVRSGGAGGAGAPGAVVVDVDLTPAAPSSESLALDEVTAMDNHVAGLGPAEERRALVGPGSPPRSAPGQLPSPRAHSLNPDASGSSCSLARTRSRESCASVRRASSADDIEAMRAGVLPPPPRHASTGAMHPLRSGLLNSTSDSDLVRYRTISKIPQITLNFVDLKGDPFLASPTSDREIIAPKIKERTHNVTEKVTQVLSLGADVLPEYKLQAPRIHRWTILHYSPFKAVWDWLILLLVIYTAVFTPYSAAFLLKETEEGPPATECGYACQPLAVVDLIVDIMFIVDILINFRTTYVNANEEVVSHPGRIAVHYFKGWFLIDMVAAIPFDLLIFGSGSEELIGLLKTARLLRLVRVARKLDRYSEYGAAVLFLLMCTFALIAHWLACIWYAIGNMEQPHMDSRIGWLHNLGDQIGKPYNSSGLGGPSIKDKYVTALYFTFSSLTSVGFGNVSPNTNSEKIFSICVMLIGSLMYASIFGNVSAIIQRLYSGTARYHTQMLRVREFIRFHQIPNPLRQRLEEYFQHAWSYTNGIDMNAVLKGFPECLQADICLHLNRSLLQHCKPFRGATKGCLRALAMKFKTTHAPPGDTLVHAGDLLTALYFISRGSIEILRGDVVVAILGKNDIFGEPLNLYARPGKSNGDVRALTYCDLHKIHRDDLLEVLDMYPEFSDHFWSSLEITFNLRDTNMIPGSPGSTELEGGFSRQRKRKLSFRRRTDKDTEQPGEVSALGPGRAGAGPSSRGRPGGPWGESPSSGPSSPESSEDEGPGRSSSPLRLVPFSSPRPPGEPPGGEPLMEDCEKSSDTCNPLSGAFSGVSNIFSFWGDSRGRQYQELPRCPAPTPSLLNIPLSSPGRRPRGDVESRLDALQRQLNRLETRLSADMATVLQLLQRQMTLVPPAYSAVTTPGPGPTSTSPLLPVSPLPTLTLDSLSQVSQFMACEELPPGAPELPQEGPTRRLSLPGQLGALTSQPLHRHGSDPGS
row,Compound,"hERG current change (%, negative = inhibition) at 10uM [%]"
1,COC(=O)CSc1ncnc2c(C)csc12,3.11
2,Cn1c2ccccc2c2c(C(=O)N3CCC4(CC3)OCCO4)cn(C3CCCC3)c(=O)c21,-15.1
3,CN(Cc1ccccc1)c1nc(N)c([N+](=O)[O-])c(Nc2cccc(F)c2)n1,-11.9
4,COc1cc(COCC(O)CN2CCN(Cc3ccc4c(c3)OCO4)CC2)cc(OC)c1OC.Cl (stereo not drawn),-0.319
5,O=C(CNC(=O)c1ccco1)OC(C(=O)c1ccccc1)c1ccccc1 (stereo not drawn),0.438
6,O=C(NC1CC2CCCC(C1)N2C(=O)Nc1ccccc1Cl)C1CC1 (stereo not drawn),28.8
7,CC(=O)c1cc(N2CCC(C(=O)O)CC2)ccc1[N+](=O)[O-],11.2
8,Nc1c(C(=O)NCCc2ccc(Cl)cc2)sc2ccc(S(=O)(=O)N3CCCCC3)cc12,17.8
9,COc1ccccc1OCCNC(=O)CCNC(=O)c1ccccc1OC,13.2
10,COc1cc2c(cc1OC)[C@@H]1Cc3ccc(OC)c(OC)c3CN1CC2.Cl,1.19
11,CCOC(=O)C1(Cc2ccc(OC)cc2)CCN(C(=O)CC2CCC(=O)N2)CC1 (stereo not drawn),10.2
12,Cc1ccc(-c2cc(C(=O)NCc3ccco3)no2)cc1,17.2
13,CCOC(=O)c1c2n(c3ccc(OC(C)=O)cc13)CCC2,-11.1
14,COc1ccc(S(=O)(=O)Nc2ccc(F)cc2)cc1N(C)S(=O)(=O)c1ccc(Cl)cc1,3.39
15,COc1ccc(NC(=O)c2cc(C3CC3)nc3c2cnn3C(C)C)cc1OC,-6.44
16,Cc1oc(-c2cc(F)ccc2F)nc1CN1CCN(C)C(=O)[C@@H]1C,8.32
17,Cl.O=c1c2[nH]c3ccc(F)cc3c2ncn1C1CCCCC1,29
18,O=C(Nc1ccccc1C(=O)O)c1cccc(F)c1,4.67
19,CCCC(c1nnnn1C(C)(C)CC)N(CCCO)Cc1cc2cc(C)cc(C)c2[nH]c1=O (stereo not drawn),-37.7
20,COc1ccc(N(Cc2cc(=O)[nH]c3ccccc23)C(=O)c2ccco2)cc1,-30
21,CCc1ccc(C(=O)CN2C(=O)NC(C)(c3ccc(C)cc3)C2=O)cc1 (stereo not drawn),8.2
22,CC(C)Cc1cc(C(=O)Nc2cccnc2)no1,-29.7
23,O=C(/C=C/c1ccccc1F)c1ccoc1,-8.68

row,Compound,"hERG current change (%, negative = inhibition) at 10uM [%]"
1,O=S(=O)(NCc1ccccn1)c1cc(Cl)ccc1Cl,8.35
2,COc1ccc(C(CNC(=O)CNS(=O)(=O)c2ccc(NC(C)=O)cc2)N2CCOCC2)cc1 (stereo not drawn),3.95
3,CCOC(=O)Cc1nn(Cc2ccc(Cl)cc2)c(=O)c2ccccc12,5.17
4,Cc1ccc(S(=O)(=O)N/N=C2/CCCCC2C2CCCCC2)cc1[N+](=O)[O-] (stereo not drawn),-5.07
5,Cc1ccccc1-c1nc2sc3c(c2c(=O)o1)CCC3,9.93
6,O=C(NCC(=O)N(c1cnc2ccccc2c1)C(C(=O)NC1CCCC1)c1ccncc1)c1ccco1 (stereo not drawn),8.74
7,O=C(CN(Cc1ccccc1)C(=O)CCC(=O)Nc1nccs1)NCc1ccc(F)cc1,-1.38
8,CCOC(=O)[C@H]1[C@H]2COc3ccc(OC)cc3[C@@H]2N2C(=O)c3cc(F)c(F)cc3NC(=O)[C@@]12C,-11.6
9,CC(=O)Oc1ccc2c(C)cc(=O)[nH]c2c1,19.1
10,N#Cc1cnn2c1nc(N1CCOCC1)c1ccccc12,1.28
11,Cc1cc(-c2[nH]nc3c2C(c2ccc(Cl)cc2)C(C#N)=C(N)O3)c(C)s1 (stereo not drawn),7.96
12,COCCn1c(Cc2ccccc2)nnc1SCc1ccc([N+](=O)[O-])cc1,-55
13,CCc1ccccc1Nc1nc(N)nc(COC(=O)C2=COCCO2)n1,3.62
14,COc1ccc(Sc2ccccc2CN(C)C)cc1OC.Cl,-5.59
15,CCCNC(=O)c1ccccc1NC(=O)COc1cccc2c1OC(C)(C)C2,-11.6
16,COc1cccc2cc(-c3cc(=O)oc4cc(C)c(OCC(C)=O)cc34)oc12,19
17,Cc1nnc(NC(=O)CN2CC(C)OC(C)C2)s1 (stereo not drawn),-5.06
18,CCOC(=O)C1CCN(C(=O)c2ccc(N3CCCC3=O)cc2)CC1,5.05
19,C=CCSc1n[nH]c2nc3c(c(=O)n12)C1(CCCC1)Cc1ccccc1-3,5.78
20,S=c1[nH]nc(CSCCOc2ccc(Cl)cc2Cl)o1,13
21,Cc1ccc2nc(C(=O)N3CCc4c([nH]c5ccccc45)C3c3ccccn3)cn2c1 (stereo not drawn),-31.1
22,CC(C)(C)c1ccc(C(=O)CCCSC2=C(C#N)C(c3ccco3)C3=C(CCCC3=O)N2)cc1 (stereo not drawn),1.14
